# According to the antibiotic and cytotoxicity screens of Wong et al. (2023):
# This is one part of the list.
# Test system: HSkMC (human skeletal muscle cells)
# Experiment: cytotoxicity call (relative viability < 0.9)
# Conditions: 10 µM
row,SMILES,cytotoxicity call
1,O=C(C[C@H]1C[C@H]2c3cc(NS(=O)(=O)c4ccc(F)cc4)ccc3O[C@H]2[C@@H](CO)O1)N1CCOCC1,inactive
2,C[C@@H]1CN([C@@H](C)CO)C(=O)c2cc(C#C[C@@H](C)O)cnc2O[C@@H]1CN(C)C(=O)Nc1ccc(C(F)(F)F)cc1,inactive
3,C[C@H](CO)N1C[C@H](C)[C@@H](CN(C)C(=O)c2ccncc2)OCCCC[C@H](C)Oc2ccc(NS(=O)(=O)c3ccc(Cl)cc3)cc2C1=O,inactive
4,C[C@H]1CN([C@@H](C)CO)C(=O)CCCn2cc(nn2)CO[C@@H]1CN(C)S(=O)(=O)c1ccc(Oc2ccccc2)nc1,inactive
5,Cc1ccc(C(=O)N2CCN(c3ccc(NC(=O)COc4c(C)cc(C)cc4Br)cc3)CC2)cc1,inactive
6,COc1ccc(-c2cnc3c(c2)C(=O)N([C@H](C)CO)C[C@H](C)[C@H](CN(C)C(=O)Cc2ccncc2)O3)cc1,inactive
7,COc1ccc(Cn2cc[nH]c(=O)c2=O)cc1,inactive
8,C[C@@H]1CN([C@@H](C)CO)C(=O)c2cc(NS(C)(=O)=O)ccc2O[C@@H](C)CCCCO[C@@H]1CN(C)S(=O)(=O)c1cccs1,inactive
9,C[C@@H]1CN([C@H](C)CO)C(=O)Cc2cc(NC(=O)Cn3cnnn3)ccc2O[C@H]1CN(C)Cc1ccc(Cl)c(Cl)c1,inactive
10,O=C(OC[C@H]1O[C@@H](OC(=O)c2cc(O)c(O)c(O)c2)[C@H](O)[C@@H](OC(=O)c2cc(O)c(O)c(O)c2)[C@@H]1O)c1cc(O)c(O)c(O)c1,inactive
11,C[C@@H]1CN([C@@H](C)CO)C(=O)c2cc(NC(=O)Cc3ccccc3)ccc2O[C@@H]1CN(C)Cc1ccc(-c2ccccc2)cc1,inactive
